# In publication PMC4336329 (PLoS ONE, 2015):
# About 14,000 (4.5%) of roughly 310,000 compounds showed an effect of 50% or more. The effect is printed as a negative number. This is one part of the list.
# Target: human ether-à-go-go-related gene (hERG) potassium channel (human, UniProt Q12809)
# Assay: primary screen, population patch clamp on CHO cells stably expressing hERG
# 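Note: peak tail current of the secondary pulse compared with the same well before compound.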
# human ether-à-go-go-related gene (hERG) potassium channel, sequence (Q12809 whole entry, looked up): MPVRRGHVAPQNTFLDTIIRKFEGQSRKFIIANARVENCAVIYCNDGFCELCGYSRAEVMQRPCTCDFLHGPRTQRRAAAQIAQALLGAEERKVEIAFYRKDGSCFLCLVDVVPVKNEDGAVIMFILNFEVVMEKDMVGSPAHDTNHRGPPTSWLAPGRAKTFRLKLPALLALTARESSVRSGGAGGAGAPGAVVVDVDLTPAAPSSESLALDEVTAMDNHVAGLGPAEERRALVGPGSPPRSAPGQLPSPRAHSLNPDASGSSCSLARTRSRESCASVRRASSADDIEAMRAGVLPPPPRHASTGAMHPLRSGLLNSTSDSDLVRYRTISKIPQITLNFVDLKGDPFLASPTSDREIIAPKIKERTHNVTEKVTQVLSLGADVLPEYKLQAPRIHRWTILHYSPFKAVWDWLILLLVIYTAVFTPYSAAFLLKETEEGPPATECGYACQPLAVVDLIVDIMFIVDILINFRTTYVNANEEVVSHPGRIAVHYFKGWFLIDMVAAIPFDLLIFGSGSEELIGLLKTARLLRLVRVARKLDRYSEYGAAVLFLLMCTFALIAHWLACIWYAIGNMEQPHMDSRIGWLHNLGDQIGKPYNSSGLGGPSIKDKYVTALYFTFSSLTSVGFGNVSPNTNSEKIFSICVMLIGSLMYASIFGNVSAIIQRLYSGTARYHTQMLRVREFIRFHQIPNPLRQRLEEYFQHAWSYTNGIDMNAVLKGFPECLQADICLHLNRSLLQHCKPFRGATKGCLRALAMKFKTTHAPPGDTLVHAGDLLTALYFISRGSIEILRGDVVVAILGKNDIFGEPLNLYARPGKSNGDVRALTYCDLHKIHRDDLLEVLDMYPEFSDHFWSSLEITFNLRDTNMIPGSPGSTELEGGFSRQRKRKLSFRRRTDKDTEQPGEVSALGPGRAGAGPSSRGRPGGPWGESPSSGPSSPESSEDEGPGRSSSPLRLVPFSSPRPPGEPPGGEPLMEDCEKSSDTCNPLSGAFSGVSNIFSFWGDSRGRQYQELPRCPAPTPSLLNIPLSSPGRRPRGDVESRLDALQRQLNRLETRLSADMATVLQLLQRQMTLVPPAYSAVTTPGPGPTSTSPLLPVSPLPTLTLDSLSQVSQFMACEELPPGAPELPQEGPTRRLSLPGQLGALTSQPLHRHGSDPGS
row,Structure (SMILES),"hERG current change (%, negative = inhibition) at 10uM"
1,CCC1(C)Cc2c(sc3nc(SC)nc(N)c23)CO1 (centres unmarked),-7.82%
2,CCOC(=O)C1=C(C)N(C)C(=S)N(C)C1c1ccc(OC)cc1 (centres unmarked),-10.5%
3,COC(=O)CN1C(=S)N(c2ccc(F)cc2)C(=O)C1CC(=O)Nc1ccccc1 (centres unmarked),-4.25%
4,COc1cccc(C2CC(c3ccccc3)=NN2S(=O)(=O)c2ccc(C)cc2)c1OC (centres unmarked),3.4%
5,COc1ccc(N2CCN(C(=O)c3ccncc3)CC2)cc1,-32%
6,CCOC(=O)N1CCN(C(=O)CSc2ccc(-c3ccncc3)nn2)CC1,-0.414%
7,O=C(Nc1ccc(Cl)cc1N1CCOCC1)C1CC1,7.16%
8,CC1CC(C)CN(CCCNC(=O)CC2Oc3ccccc3NC2=O)C1 (centres unmarked),-10.1%
9,O=C(Nc1nnc(COc2ccc(F)cc2)s1)Nc1ccccc1F,10.5%
10,CC(C)(C)NC(=O)CSc1ncnc2c1cnn2-c1ccccc1,-1.27%
11,CCOc1ccc2nc(SC(C)C(N)=O)[nH]c2c1 (centres unmarked),14.4%
12,NC(=O)c1cc(C(=O)c2ccc(Cl)cc2)c[nH]1,17.6%
13,O=C(NCCc1nc2ccccc2[nH]1)/C(=C/c1ccc2c(c1)OCO2)NC(=O)c1ccccc1,-71.1%
14,COc1ccc(C(=O)C2=NN(C(C)=O)CC2c2ccco2)cc1 (centres unmarked),2.27%
15,CCN(CC)S(=O)(=O)c1ccc2c(c1)nc(SCC(=O)NC1CC1)n2-c1ccccc1OC,-56.2%
16,C/C(=N/NC(=O)c1ccoc1C)c1ccc(NC(=O)c2ccncc2)cc1,-0.357%
17,Cc1ccccc1NS(=O)(=O)c1cccc2nonc12,2.34%
18,CCCn1nc2cc(C(=O)NCc3ccccc3)ccc2c1OCC,-8.07%
19,CN1CCN(c2nc(-c3ccc(C(C)(C)C)cc3)nc3ccccc23)CC1.Cl,-2.05%
20,COc1ccc2nc(NC(=O)C3CSC4(C)CCC(=O)N34)sc2c1 (centres unmarked),-23.1%
21,COc1ccc(CN(Cc2nc3ccccc3c(=O)[nH]2)C(=O)c2ccco2)cc1,-3.68%
22,CC(=O)c1cc(NC(=O)c2ccc(Cl)cc2)c(=O)oc1/C=C/N(C)C,-13.5%

row,Structure (SMILES),"hERG current change (%, negative = inhibition) at 10uM"
1,Cc1cccc(-n2cnc(C(=O)NNC(=S)Nc3ccc(Cl)cc3)c2)n1,-1.74%
2,CSc1ccccc1C(=O)C1CCCN(C(=O)CCN2CCCO2)C1 (centres unmarked),7.34%
3,COc1ccc(NC(=O)Nc2nc(C)cc(C)n2)c(OC)c1,-23%
4,C[C@@]12C(=O)Nc3cc(Cl)ccc3C(=O)N1[C@H]1c3cc(Br)ccc3OC[C@@H]1[C@@H]2c1ccccc1,14.3%
5,Cc1ccc(N2CC(C(=O)OCC(=O)c3ccc([N+](=O)[O-])cc3)CC2=O)cc1 (centres unmarked),-26.8%
6,O=C(C(=O)N1CCCC1CO)N1CCCC1CO (centres unmarked),12.8%
7,COc1cc(/C=C/c2cccc[n+]2C)ccc1OCC(=O)Nc1cccc(Cl)c1.[I-],-13.3%
8,O=[N+]([O-])c1ccc(COP(=O)([O-])OCc2ccc([N+](=O)[O-])cc2)cc1.[Na+],4.2%
9,CCOC(=O)C(NCCc1ccccc1F)(NC(=O)CC)C(F)(F)F (centres unmarked),-0.945%
10,CCOC(=O)N1CCN(CCC(=O)Nc2ccc(OC)cc2OC)CC1,11.1%
11,Cc1ccccc1C(=O)NCCCNC(=O)c1ccco1,24.4%
12,O=C(NCC(c1cccs1)N1CCOCC1)c1cn(-c2ccccc2)nc1-c1ccc(Cl)cc1 (centres unmarked),6.82%
13,O=C(O)c1ccc(NCc2cccs2)cc1,3.22%
14,COc1ccc(CN2CCc3ccccc3C2)c(OC)c1,-28.4%
15,O=C(O)CCC(=O)Nc1cccc(C(=O)Nc2ccc(Br)cc2)c1,7.43%
16,CCN(CC)CCCNc1nnc(C)c(=O)[nH]1,2.82%
17,COc1ccc(Cl)cc1NC(=O)CCc1nnc2ccc(N3CCN(C)CC3)nn12,3.16%
18,CCc1c(C)sc(NC(=O)C2CCCO2)c1C#N (centres unmarked),-3.74%
19,CC(C)C(=O)Nc1nnc(Sc2ccc(N(C)C)cc2)s1,16.4%
20,COc1cc(OC)c(OC)cc1NC(=O)CC1COc2ccccc2O1 (centres unmarked),-6.05%
21,O=C(CCCN1C(=O)c2ccccc2C1=O)NCc1ccc(F)cc1,-21.2%
22,CCn1c(SCC(=O)Nc2nccs2)nnc1-c1ccco1,-10.7%
